Measured values: the supplement of paper PMC3334620
The full ranking holds about 33,000 sequences; the median of “E-score (-0.5 to 0.5)” is about -0.016, and the highest 2% start at about 0.31. The list shows a part of the results.

Target: Cst6 (UniProt P40535)
Assay: PBM E-score (8-mer binding enrichment) (E-score (-0.5 to 0.5)); higher = stronger / more preferred TF binding; most listed sequences are background and not binding sites
Settings: protein concentration: 200 nM; construct: GST-DNA-binding domain
Summary of the method: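 Universal all-10-mer Agilent arrays, fresh or stripped once, were converted to double-stranded form by primer extension. GST-tagged yeast transcription factors from PURExpress in vitro transcription/translation, full-length or DNA-binding domain only, were applied at about 100-200 nM and detected with fluorescent anti-GST. After masliner normalisation, the Universal PBM Analysis Suite scored each ungapped eight-base word together with its reverse complement by E-score.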

| Sequence | PBM E-score |
| --- | --- |
| CTATACAA | 0.0119 |
| TAATAATA | 0.259 |
| GCGGCGCA | 0.197 |
| ATTGGTGC | 0.0848 |
| GAACAAGA | 0.131 |
| CACAACTG | -0.146 |
| GGCAGCAC | -0.0936 |
| CTTGGAAC | -0.0185 |
| CAGATCCG | -0.018 |
| AAATAGCC | 0.0281 |
| GAAGTATA | 0.0932 |
| GAGCATGA | 0.0252 |
| CCTGCACC | -0.35 |
| CATTATCC | 0.0923 |
| CACGGTAC | -0.228 |
| GCGTTCTA | -0.031 |
| AAAGATGG | -0.0227 |
| ATCGTTTC | 0.0327 |
| GCAAAGCC | -0.291 |
| AAAACTAG | 0.116 |
| CCAGAACA | -0.189 |
| CGGTCTAA | 0.00521 |
| CGGGCGTA | -0.294 |
| TCTTGACA | 0.053 |
| ACTAAGTG | 0.0381 |

| Sequence | PBM E-score |
| --- | --- |
| GAGGAGCA | -0.0417 |
| AAAAAGTC | 0.087 |
| AACGACAT | 0.199 |
| CAACGAGC | 0.0273 |
| GTCCAAAA | 0.179 |
| AATCGTGC | 0.195 |
| AAGGCTGC | -0.132 |
| CTTTCAGA | 0.088 |
| TGCAGACA | 0.0731 |
| TGAATCCA | 0.0707 |
| CTGAACCA | -0.0697 |
| GACCATGA | 0.15 |
| CTAGTCGA | -0.192 |
| ACCAGACA | 0.0355 |
| CACTCCAG | -0.0557 |
| ACAGCAGC | -0.0573 |
| CAGCTGAG | -0.181 |
| CTATACCA | 0.00742 |
| CGAGTCAG | -0.104 |
| GGACGTAC | -0.065 |
| AGTAGTAT | -0.00796 |
| AACTTGAT | 0.241 |
| GAAGTAAA | 0.0207 |
| CTAGGCGC | 0.145 |
| AGTGAGAC | -0.049 |

| Sequence | PBM E-score |
| --- | --- |
| TCATGGGA | 0.0882 |
| CGCCAATA | 0.0635 |
| ACTTACCT | -0.0885 |
| CGACGGCG | 0.257 |
| AATGCCTA | -0.0283 |
| ATAAGAAT | 0.253 |
| ATACGACA | 0.186 |
| ACATTACA | 0.177 |
| ACCAGTAA | 0.0918 |
| AAAGGCCA | -0.109 |
| AGCAACGC | 0.0203 |
| CATAGAGC | -0.0927 |
| AATGCACC | -0.0312 |
| CTGGAAGC | -0.22 |
| AAAGCTAT | 0.0617 |
| AATTAACC | 0.052 |
| ACCCGGTA | -0.119 |
| TGCTTGAA | 0.0953 |
| GAACGCCA | -0.0331 |
| GAGGTTCC | -0.197 |
| CCTCTTGC | -0.138 |
| CTGAGGTC | 0.0178 |
| CAAGTGAC | 0.241 |
| CTGGGTTA | -0.0327 |
| ACTGACTC | -0.138 |

| Sequence | PBM E-score |
| --- | --- |
| GATCCATA | -0.0534 |
| CCACATTA | -0.0598 |
| ACGGAGGA | -0.157 |
| CGCGAGTA | 0.0528 |
| AACGACGG | 0.0574 |
| CCTCGGGC | -0.228 |
| CATTGTGA | 0.0379 |
| CTCCCCCA | -0.29 |
| CCAGGGGC | -0.191 |
| CTCACCTC | 0.0122 |
| GATGACAA | 0.333 |
| AGGCGCTC | -0.119 |
| GGCCTCAC | -0.0728 |
| AAACTGTG | 0.0247 |
| ATCTGCTG | 0.0566 |
| ATATGCGA | 0.127 |
| GCGAACAC | -0.195 |
| CCTTGCAG | -0.181 |
| TAACTCAA | 0.0592 |
| AAACCGGC | -0.111 |
| GCTTGCAC | -0.175 |
| CCTATCAC | -0.145 |
| CGAGACGA | -0.253 |
| GGCGCCCC | 0.0324 |
| ATTAGGCA | 0.104 |

| Sequence | PBM E-score |
| --- | --- |
| AGGAATAT | 0.127 |
| TGCTGAAA | 0.0851 |
| AGCGCATC | -0.134 |
| CATCGCGG | 0.0064 |
| ATGCCATG | 0.106 |
| CTGTCTCC | -0.197 |
| ACGCTCCT | -0.0423 |
| TACAGGTA | 0.0112 |
| AAATCACT | 0.193 |
| CACATTGG | 0.0518 |
| ATCAATCA | 0.165 |
| CGGCTGAA | -0.0653 |
| ATCTGGAG | -0.173 |
| TAGGTTGA | 0.0193 |
| CCGTGTGC | 0.0884 |
| GCAAGACC | -0.153 |
| CCTTCGGC | -0.0677 |
| CGCAGCCC | -0.206 |
| GGACAGCC | -0.239 |
| GGCCGACA | -0.194 |
| AGCGGCCG | 0.0238 |
| CGGCTTCC | 0.0101 |
| AACCCTCA | -0.226 |
| GCGCTAGC | -0.242 |
| ACTGAACT | -0.122 |

| Sequence | PBM E-score |
| --- | --- |
| AGGCTGCA | 0.0157 |
| GACCTATA | 0.189 |
| CAGGTTGC | 0.129 |
| CCGGCTAG | -0.403 |
| GGCCACCC | -0.184 |
| GGGAGAAA | -0.12 |
| GTGTATTA | 0.277 |
| AGTGCACT | -0.0719 |
| GCCACGCA | -0.108 |
| AAGTGTGA | 0.14 |
| ATCTGGAA | 0.184 |
| CCGTACAC | -0.0178 |
| CAAGGGGG | -0.278 |
| ATAGTAAT | 0.273 |
| AGACCAGG | -0.223 |
| AGTTACAA | 0.182 |
| CGTCCTAC | -0.16 |
| TCCTTACA | 0.0285 |
| GAACATCC | 0.101 |
| CCCATACC | 0.00425 |
| AACTAGAT | 0.0586 |
| GACGGCGC | 0.271 |
| AGCGCAAA | 0.0469 |
| GTGCTAGA | -0.12 |
| GGAAAAAC | 0.143 |

| Sequence | PBM E-score |
| --- | --- |
| GGCATTCA | 0.0485 |
| GCAGTGAC | 0.17 |
| CACGCGTA | 0.0842 |
| AATGCTGC | 0.0499 |
| CTGTACCA | -0.19 |
| ATGACGTG | 0.491 |
| ACGAAGCC | -0.0878 |
| GACCACGA | -0.115 |
| TCTATGCA | -0.0471 |
| ACACTAAG | -0.00502 |
| AACCAATT | 0.129 |
| AAGCTAGT | -0.0293 |
| CTTTGAAA | 0.0339 |
| TCAGTCCA | -0.209 |
| GCTGTCCA | -0.0895 |
| ATCAATAA | 0.225 |
| CGCTGCGC | -0.228 |
| AAGTCGAA | -0.13 |
| CGTCAAAC | 0.126 |
| AACCGCTA | -0.0625 |
| AAAGATCT | -0.0274 |
| TACTTATA | -0.0584 |
